From PubChem BioAssay AID504333 (National Center for Advancing Translational Sciences (NCATS), 2011)
About 16,000 (4.4%) of roughly 360,000 compounds were called active. Inconclusive means that the source gave no clear call. Such entries were picked first, then a sample of the others. Calls come from the whole dose curve; as a rule, active = well fitted inhibition curve with a large enough effect; inconclusive = small, poorly fitted or top-dose-only effect; inactive = no such curve, though single readings can be large or run the other way. Potencies of inconclusive entries are doubtful fits and often do not repeat.

Biological target: Bromodomain adjacent to zinc finger domain protein 2B (Homo sapiens) (UniProt Q9UIF8)
Test: qHTS Assay for Inhibitors of BAZ2B; note: nearly all actives have a fitted effect of over 60% in size
Conditions: AlphaScreen BAZ2B-H3K14Ac peptide displacement; series mostly up to 114 µM
How it was run: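 BAZ2B (50 nM) with biotin-H3(5-23)K14Ac peptide (50 nM) in PBS pH 7.4, 0.01% Tween-20, preformed 30 min, then compound 30 min at room temperature; top concentration 110uM. AlphaScreen streptavidin donor/nickel chelate acceptor beads (10 ug/mL final), 20 min dark, signal read.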
Potency is the fitted concentration of half-maximal effect; tags give direction and shape of the fitted curve.

Sequence of UniProt Q9UIF8 (Q9UIF8 whole entry, looked up, the tested form may be a part): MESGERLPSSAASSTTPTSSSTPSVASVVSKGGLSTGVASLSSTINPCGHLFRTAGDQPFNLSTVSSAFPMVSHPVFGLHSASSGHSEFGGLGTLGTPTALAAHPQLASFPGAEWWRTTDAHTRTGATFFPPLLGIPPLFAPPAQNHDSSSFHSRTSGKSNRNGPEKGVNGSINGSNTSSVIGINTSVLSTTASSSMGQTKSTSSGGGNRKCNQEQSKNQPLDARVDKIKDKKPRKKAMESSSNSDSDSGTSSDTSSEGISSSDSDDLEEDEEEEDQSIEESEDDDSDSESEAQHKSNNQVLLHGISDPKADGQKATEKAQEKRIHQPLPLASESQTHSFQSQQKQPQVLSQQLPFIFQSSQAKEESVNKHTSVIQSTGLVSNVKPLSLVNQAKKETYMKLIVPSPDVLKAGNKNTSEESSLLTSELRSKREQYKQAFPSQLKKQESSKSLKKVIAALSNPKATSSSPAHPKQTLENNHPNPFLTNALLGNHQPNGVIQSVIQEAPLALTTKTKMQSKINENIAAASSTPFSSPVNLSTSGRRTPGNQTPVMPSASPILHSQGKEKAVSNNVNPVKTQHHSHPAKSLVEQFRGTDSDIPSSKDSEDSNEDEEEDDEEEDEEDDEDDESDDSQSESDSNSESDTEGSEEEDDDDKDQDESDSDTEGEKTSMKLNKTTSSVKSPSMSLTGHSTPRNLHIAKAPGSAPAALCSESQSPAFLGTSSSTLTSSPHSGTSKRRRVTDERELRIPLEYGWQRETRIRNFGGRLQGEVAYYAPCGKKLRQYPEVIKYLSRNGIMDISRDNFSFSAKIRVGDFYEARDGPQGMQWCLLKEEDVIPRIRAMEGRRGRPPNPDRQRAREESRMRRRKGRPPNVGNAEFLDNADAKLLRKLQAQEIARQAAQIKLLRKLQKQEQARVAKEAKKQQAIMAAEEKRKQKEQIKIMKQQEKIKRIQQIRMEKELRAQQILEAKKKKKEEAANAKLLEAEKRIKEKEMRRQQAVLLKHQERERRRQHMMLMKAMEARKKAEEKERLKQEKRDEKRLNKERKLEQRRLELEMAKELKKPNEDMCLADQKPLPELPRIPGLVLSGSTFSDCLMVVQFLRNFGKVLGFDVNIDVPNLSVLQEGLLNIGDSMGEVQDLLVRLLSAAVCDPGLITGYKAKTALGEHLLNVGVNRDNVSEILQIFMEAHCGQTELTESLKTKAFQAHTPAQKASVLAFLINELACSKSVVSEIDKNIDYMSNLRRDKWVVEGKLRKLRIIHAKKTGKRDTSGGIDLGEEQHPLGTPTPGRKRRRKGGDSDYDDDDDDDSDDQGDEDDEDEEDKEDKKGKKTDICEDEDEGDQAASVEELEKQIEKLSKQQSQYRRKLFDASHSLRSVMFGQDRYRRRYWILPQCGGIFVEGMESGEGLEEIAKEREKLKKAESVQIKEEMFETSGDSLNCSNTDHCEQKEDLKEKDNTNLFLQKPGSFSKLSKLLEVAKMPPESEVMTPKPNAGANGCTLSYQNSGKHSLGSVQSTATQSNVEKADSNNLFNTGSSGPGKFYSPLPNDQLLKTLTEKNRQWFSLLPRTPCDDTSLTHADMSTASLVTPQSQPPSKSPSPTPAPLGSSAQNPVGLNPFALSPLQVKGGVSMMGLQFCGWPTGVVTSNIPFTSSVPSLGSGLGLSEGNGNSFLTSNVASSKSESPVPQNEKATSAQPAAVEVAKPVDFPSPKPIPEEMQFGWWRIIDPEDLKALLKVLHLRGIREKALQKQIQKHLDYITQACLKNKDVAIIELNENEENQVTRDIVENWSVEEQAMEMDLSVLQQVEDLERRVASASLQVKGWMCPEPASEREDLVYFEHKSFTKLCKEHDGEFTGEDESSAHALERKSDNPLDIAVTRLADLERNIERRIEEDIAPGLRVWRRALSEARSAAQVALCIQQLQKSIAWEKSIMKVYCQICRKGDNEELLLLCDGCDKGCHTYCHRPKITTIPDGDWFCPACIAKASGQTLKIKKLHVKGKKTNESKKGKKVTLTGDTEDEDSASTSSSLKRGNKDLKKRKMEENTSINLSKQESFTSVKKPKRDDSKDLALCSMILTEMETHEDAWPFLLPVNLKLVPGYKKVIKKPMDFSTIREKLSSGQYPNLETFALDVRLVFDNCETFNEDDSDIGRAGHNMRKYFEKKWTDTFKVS

Row | SMILES | Potency
1 | CCn1c(C)c(C2=CCN(S(=O)(=O)c3ccc(C)cc3)CC2)c2ccccc21 | inconclusive: 35.5 µM [inhibitor, partial curve]
2 | Cc1ccccc1-n1sc2cc(F)ccc2c1=O | active: 4.47 µM
3 | O=C(Nc1ccc(F)cc1F)c1noc2c1CCC2 | active: 56.2 µM
4 | Cc1ccc(C(=O)N2CCCC(N3CCN(c4ccccc4C)CC3)C2)c(=O)[nH]1 (configuration not stated) | inactive
5 | CCNC(=O)NC(=O)C(C)OC(=O)c1ccc(-n2nc(SC)sc2=S)cc1 (configuration not stated) | inconclusive: 35.5 µM [inhibitor, partial curve]
6 | O=C(c1ccc2ccccc2n1)N1CCN(c2ccccc2Cl)CC1 | active: 50.1 µM
7 | COc1ccc(C)cc1S(=O)(=O)N(CC(=O)Nc1cccc([N+](=O)[O-])c1)c1ccc(C)cc1 | inconclusive: 79.4 µM [inhibitor, single point]
8 | Cc1c(Cl)c([N+](=O)[O-])nn1CC(=O)N1CCN(Cc2ccccc2)CC1 | inactive
9 | Cc1cc(NC(=O)CSc2nccn2-c2ccc([N+](=O)[O-])cc2)no1 | inconclusive: 70.8 µM [inhibitor, single point]
10 | C#CCOCCOCCOCCNc1nc(N2CCN(C(=O)[C@H](CCC(=O)O)n3cc(C(N)CC(C)C)nn3)CC2)nc(N2CCN(C(=O)[C@H](Cc3ccc(O)cc3)n3cc(C(N)[C@H](C)CC)nn3)CC2)n1 (some centres not stated) | active: 31.6 µM
11 | COc1ccc(Cn2c(C(=O)O)c(CNCCc3cccs3)c3ccc(OC)cc32)cc1 | inactive
12 | Cc1cccc(NC(=O)c2ccc(CN3CCN(Cc4ccccc4)CC3)cc2)c1 | inconclusive: 79.4 µM [inhibitor, partial curve]
13 | C/C(=N\NC(=S)NCc1ccccc1)c1ccccc1F | inconclusive: 50.1 µM [inhibitor, partial curve]
14 | COc1ccc(-c2nc(CSCC(=O)N3CCN(c4cccc(C)c4)C(C)C3)c(C)o2)cc1OC (configuration not stated) | active: 44.7 µM
15 | Cc1ccc(-n2c(SCc3nc(-c4ccc(Cl)cc4)no3)nnc2-c2ccncc2)cc1 | inconclusive: 28.2 µM [inhibitor, full curve]
16 | Cc1cccc(/C(N)=N/OC(=O)C23CC4CC(CC(C4)C2)C3)c1 | inactive
17 | COc1ccccc1Cn1c(=O)c2ccccc2n2c(Sc3ncnc4sccc34)nnc12 | inactive
18 | COc1ccc(N=C2NC(=O)/C(=C\C=C\c3ccco3)S2)cc1 | active: 28.2 µM
19 | Cc1nc(NC(=O)C(Cl)Cl)sc1C(=O)N(C)C | inconclusive: 89.1 µM [inhibitor, single point]
20 | O=C(COc1cccc(C(F)(F)F)c1)Nc1ccc2[nH]ncc2c1 | inactive
21 | CCCc1nn2c(=O)cc(COC(=O)c3ccccc3NC(=O)C3CCCCC3)nc2s1 | inactive
22 | COC(=O)c1c(C)sc(-c2c(-c3ccc(F)cc3)[nH]c3[nH]c(=O)[nH]c(=O)c23)c1O | inconclusive: 79.4 µM [inhibitor, single point]
23 | CCN(CC(=O)Nc1ccc(NC(C)=O)cc1)C(=O)/C=C/c1cn(-c2ccccc2)nc1-c1ccc(C)cc1 | inconclusive: 70.8 µM [inhibitor, single point]
24 | COc1ccccc1/C=C1\SC(=S)N(CCC(=O)NCCCn2ccnc2)C1=O | active: 50.1 µM

Row | SMILES | Potency
25 | CCOc1ccc(C(c2c(NC(=O)c3ccccc3)sc(C)c2C)N2CCN(CCO)CC2)cc1 (configuration not stated) | inconclusive: 25.1 µM [inhibitor, full curve]
26 | O=[N+]([O-])c1ccc(N/N=C/c2ccc(O)c(O)c2O)c(S(=O)(=O)N2CCOCC2)c1 | active: 31.6 µM
27 | COCCSc1nnc(NC(=O)c2ccc(NC(C)=O)cc2)s1 | inactive
28 | COc1ccc(C(=O)/C=C2/C(=O)Nc3ccccc32)c(OC)c1 | inconclusive: 25.1 µM [inhibitor, partial curve]
29 | O=C(Cc1cn2ccsc2n1)NCc1ccccc1 | active: 79.4 µM
30 | CCOC(=O)Cn1c2[n+](c3ccccc31)CC(O)CS2 (configuration not stated) | inconclusive: 89.1 µM [inhibitor, single point]
31 | C#CCOCCOCCOCCNc1nc(N2CCN(C(=O)C(Cc3cc4ccccc4[nH]3)n3cc(C(N)C(C)CC)nn3)CC2)nc(N2CCN(C(=O)C(Cc3cc4ccccc4[nH]3)n3cc(C(N)C(C)CC)nn3)CC2)n1 (configuration not stated) | active: 28.2 µM
32 | O=C(Nc1ccc(CN2CCOCC2)cc1)c1ccc(-c2cccc(Cl)c2)o1 | inconclusive: 8.91 µM [inhibitor, partial curve]
33 | CN1/C(=C\C(=O)COc2ccc3c(c2)OCO3)C(C)(C)c2ccccc21 | active: 28.2 µM
34 | COc1ccc(C(=O)N2CCN(Cc3cc(OC)ccc3OC)CC2)cc1 | inconclusive: 89.1 µM [inhibitor, single point]
35 | COc1ccccc1C(=O)N1CCC(N2CCN(c3ccccc3)CC2)CC1 | active: 50.1 µM
36 | COc1ccc(/C=C\C(=O)c2c(O)ccc3c(C)cc(=O)oc23)cc1OC | inconclusive: 79.4 µM [inhibitor, partial curve]
37 | CCOc1cc(CNCCc2c[nH]c3ccccc23)cc(Cl)c1OCC(N)=O | inconclusive: 3.16 µM [inhibitor, full curve, poor fit]
38 | CCc1ccc(C(=O)NNc2ccc(S(N)(=O)=O)cc2)cc1 | inactive
39 | O=C(CN1CCCN(Cc2ccc(F)cc2Cl)C1=O)NC1CCCCCCC1 | inconclusive: 89.1 µM [inhibitor, single point]
40 | CN1CCN(c2ccc(NC(=O)c3ccc4c(c3)[nH]c(=O)n4Cc3ccc(F)cc3)cc2)CC1 | inconclusive: 79.4 µM [inhibitor, single point]
41 | O=C(NC1CCCCC1)c1sc(=S)n2c1[nH]c(=O)c1ccccc12 | inconclusive: 44.7 µM [inhibitor, partial curve]
42 | CCN(c1ccccc1)S(=O)(=O)c1nnc(NC(=O)C(C)Oc2ccccc2)s1 (configuration not stated) | inconclusive: 1.26 µM [inhibitor, full curve, poor fit]
43 | CCOC(=O)Cc1ccc(NC(=O)N2CCC(CN3CCC(C)CC3)CC2)cc1 | inactive
44 | COc1ccc(Nc2ccccc2N)cc1 | active: 35.5 µM
45 | O=C1COc2ccc(C(=O)COC(=O)/C=C/c3ccco3)cc2N1 | inconclusive: 89.1 µM [inhibitor, single point]
46 | O=c1cc2oc3cc(O)c(O)cc3c(-c3ccccc3[N+](=O)[O-])c-2cc1O | active: 1.12 µM
47 | COc1ccccc1Nc1nc(C)nc2c1oc1ccccc12 | inconclusive: 89.1 µM [inhibitor, single point]
48 | COc1cc(C(=O)Nc2ccc(N(C)C)cc2)cc(OC)c1OC | inconclusive: 70.8 µM [inhibitor, single point]

Row | SMILES | Potency
49 | CCOc1ccc(N(CC(=O)Nc2ccc3c(c2)OCO3)S(=O)(=O)c2ccccc2)cc1 | inactive
50 | NC(=Nc1ccc(Br)cc1)c1ccccc1 | inactive
51 | Cc1ccccc1Nc1c(-c2ccccc2O)nc2sccn12 | inconclusive: 8.91 µM [inhibitor, full curve]
52 | Clc1ccc2c(NNc3ccccc3Cl)ccnc2c1 | active: 2 µM
53 | O=C(Nc1cccc(S(=O)(=O)N2CCCCC2)c1)c1cnccn1 | inconclusive: 1.26 µM [inhibitor, full curve, poor fit]
54 | O=C(Nc1ccc2[nH]c(=S)sc2c1)Nc1ccccc1F | inconclusive: 70.8 µM [inhibitor, single point]
55 | O=C1c2oc3ccc(Cl)cc3c(=O)c2C(c2cccc(Br)c2)N1CCO (configuration not stated) | inactive
56 | O=C1CC(NNc2ccccc2)C(=O)N1c1ccccc1 (configuration not stated) | inactive
57 | CC(=O)N1c2ccc(S(=O)(=O)N3CCC(C(=O)NC4CCCCC4)CC3)cc2CC1C (configuration not stated) | inconclusive: 89.1 µM [inhibitor, single point]
58 | O=C(CSc1n[nH]c(-c2ccccc2)n1)N1CCOCC1 | inconclusive: 3.98 µM [inhibitor, single point]
59 | Cc1ccccc1-c1noc(-c2ccccc2OCC(=O)Nc2ccccc2[N+](=O)[O-])n1 | inconclusive: 14.1 µM [inhibitor, full curve]
60 | Cc1ccc2c(c1)c(C)cc(=O)n2CCC(=O)O | active: 50.1 µM
61 | CC(C)(C)C(=O)NNC(=O)c1cnccn1 | inconclusive: 2.82 µM [inhibitor, full curve]
62 | CC1CN(CC(O)COC(c2ccccc2)c2ccccc2)CC(C)O1 (configuration not stated) | active: 56.2 µM
63 | O=C(CNCc1ccc(Cl)cc1)Nc1ccc(C(=O)N2CCCCCC2)cc1 | active: 50.1 µM
64 | O=C(/C=C/c1ccc2c(c1)OCO2)NCc1ccco1 | inconclusive: 50.1 µM [inhibitor, partial curve]
65 | O=C(CSCc1ccc([N+](=O)[O-])cc1)Nc1ccccc1C(=O)O | inconclusive: 79.4 µM [inhibitor, single point]
66 | COc1ccccc1-c1cc(C(=O)N/N=C/c2ccc(C)o2)c2ccccc2n1 | inconclusive: 22.4 µM [inhibitor, full curve]
67 | CCC(C)N(C(=O)CSc1nnc(NC(C)C)s1)C1CCS(=O)(=O)C1 (configuration not stated) | inactive
68 | Cc1c(F)cccc1NS(=O)(=O)c1ccc2c(c1)c(C)cc(=O)n2C | active: 50.1 µM
69 | COc1ccc(CNC(=O)CS(=O)Cc2nc(-c3ccccc3C)oc2C)cc1 (configuration not stated) | inactive
70 | Cc1cccc(Nc2nc(N)c([N+](=O)[O-])c(N3CC(C)OC(C)C3)n2)c1 (configuration not stated) | inactive
71 | COc1ccc(C(=O)Nc2n[nH]c(-c3ccncc3)n2)cc1 | inconclusive: 100 µM [inhibitor, single point]
72 | COC(=O)C(C)Sc1nnc2n(-c3cccc(C)c3)c(=O)c3c4c(sc3n12)CCCC4 (configuration not stated) | inactive
